In a collection of fitness landscapes (doi:10.1016/j.celrep.2020.107928):
In all, about 81,000 sequences were measured (“one-hybrid fitness for binding parS DNA”: median about -0.17, highest 2% from about 0.51 on). Some of the results follow.

B1: Caulobacter ParB omega fusion; a variant is named by its letters at X, in order, B8GW30 (parent)
chain: MESVVVGEPGMSEGRRGLGRGLSALLGEVDAAPAQAPGEQLGGSREAPIEILQRNPDQPRRTFREEDLEDLSNSIREKGVLQPILVRPSPDTAGEYQIVAGERAWRAAQRAGLKTVPIMVRELDDLAVLEIGIIENVQRADLNVLEEALSYKVLMEKFERTQENIAQTIGKSXSHVANXMRLLXLPDEVQSYLVSGELTAXHARAIAAAADPVALAKQIIEGGLSVRETEALARKAPNLSAGKSKGGRPPRVKDTDTQALESDLSSVLGLDVSIDHRGSTGTLTITYATLEQLDDLCNRLTRGI

Variants of: B1
Test: one-hybrid fitness for binding parS DNA (scaled: cognate 1, non-cognate 0); higher = stronger binding
Conditions: with parS DNA site
Procedure, shortened: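 On M9-minus-histidine containing 0.1 mM IPTG and 5 mM 3-AT, E. coli USO cells with a HIS3 reporter, site 19 bp from the promoter, grew 48 hours at 37°C to select Caulobacter ParB libraries randomised at four specificity codons. Plasmids from before and after were Illumina-sequenced, with three replicate libraries pooled and variants under 10 reads left out. Fitness is the log change in variant-to-wild-type read ratio, rescaled against cognate and non-cognate.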

Variant | one-hybrid fitness for binding parS DNA
DQFG | ≤ 0.2
ACSG | ≤ 0.2
HPIR | ≤ 0.2
SKAL | ≤ 0.2
FHLG | ≤ 0.2
PEPV | ≤ 0.2
VDPE | ≤ 0.2
CVVG | ≤ 0.2
PQQI | ≤ 0.2
YDKE | 0.269
THFP | 0.201
QGDV | ≤ 0.2
KDVR | ≤ 0.2
RKLI | ≤ 0.2
LSVA | ≤ 0.2
EATG | ≤ 0.2
WLLY | ≤ 0.2
HRTR | ≤ 0.2
AHCT | ≤ 0.2
LLGG | ≤ 0.2
MNAL | ≤ 0.2
IDQC | 0.383
YQEC | ≤ 0.2
KVHL | ≤ 0.2
ERHY | ≤ 0.2
CFSG | ≤ 0.2

Variant | one-hybrid fitness for binding parS DNA
NRHD | ≤ 0.2
YDYT | ≤ 0.2
HMAS | ≤ 0.2
TMTA | ≤ 0.2
IFSF | ≤ 0.2
MQSN | ≤ 0.2
WLFI | ≤ 0.2
CSSS | ≤ 0.2
LDNI | ≤ 0.2
GDRY | ≤ 0.2
NMCC | ≤ 0.2
APAV | ≤ 0.2
MLAW | ≤ 0.2
VIKE | ≤ 0.2
QVHD | ≤ 0.2
YFSC | ≤ 0.2
VNGF | ≤ 0.2
SFKN | ≤ 0.2
TDNC | ≤ 0.2
TQMR | ≤ 0.2
RPTM | ≤ 0.2
RINC | 0.955
GEPR | ≤ 0.2
FTVA | ≤ 0.2
TQHC | ≤ 0.2
VYIC | ≤ 0.2

Variant | one-hybrid fitness for binding parS DNA
TPWT | ≤ 0.2
QKVL | ≤ 0.2
HHSK | ≤ 0.2
KMGD | ≤ 0.2
KMGS | ≤ 0.2
KNDS | ≤ 0.2
TDVI | ≤ 0.2
YLTW | ≤ 0.2
RHDY | 0.397
HSSE | ≤ 0.2
GQER | ≤ 0.2
PTRC | ≤ 0.2
ITDG | ≤ 0.2
PSVP | ≤ 0.2
RSNC | 0.957
QRTW | ≤ 0.2
AELY | ≤ 0.2
FASK | ≤ 0.2
IKWT | ≤ 0.2
TGLR | ≤ 0.2
NDLG | ≤ 0.2
LSWS | ≤ 0.2
ADYM | ≤ 0.2
AGSW | ≤ 0.2
QENT | ≤ 0.2
PYNE | ≤ 0.2

Variant | one-hybrid fitness for binding parS DNA
FGDM | ≤ 0.2
CFNG | ≤ 0.2
TMWP | 0.201
PTDF | ≤ 0.2
MWIV | ≤ 0.2
RHVY | 0.354
LYMD | ≤ 0.2
KLVA | ≤ 0.2
RIML | ≤ 0.2
LCCS | ≤ 0.2
TNKT | ≤ 0.2
WGMR | ≤ 0.2
ERHC | ≤ 0.2
RNNI | ≤ 0.2
CMPG | ≤ 0.2
GFRL | ≤ 0.2
VPRK | ≤ 0.2
HEDP | ≤ 0.2
VFVD | ≤ 0.2
RPSH | ≤ 0.2
YPCV | ≤ 0.2
QYAK | ≤ 0.2
IQQS | ≤ 0.2
WYRT | ≤ 0.2
LFMG | ≤ 0.2
KYTL | ≤ 0.2

Variant | one-hybrid fitness for binding parS DNA
YDDT | ≤ 0.2
QRKH | ≤ 0.2
HNRN | ≤ 0.2
QTKY | ≤ 0.2
SFSL | ≤ 0.2
MEMS | ≤ 0.2
ERFR | ≤ 0.2
ISIL | ≤ 0.2
GHHG | ≤ 0.2
PPTC | ≤ 0.2
EYLG | ≤ 0.2
RYYW | 0.26
QELV | ≤ 0.2
TRGR | ≤ 0.2
AYPR | ≤ 0.2
VNWS | ≤ 0.2
TETS | ≤ 0.2
QEGT | ≤ 0.2
RLDI | ≤ 0.2
RGEV | ≤ 0.2
PVRK | ≤ 0.2
FHLR | ≤ 0.2
QYRC | ≤ 0.2
LSAM | ≤ 0.2
RHKN | 0.365
TSCD | ≤ 0.2

Variant | one-hybrid fitness for binding parS DNA
CKTA | ≤ 0.2
SGNP | ≤ 0.2
RACE | ≤ 0.2
MQNG | ≤ 0.2
YTPL | ≤ 0.2
WYPR | ≤ 0.2
VATN | ≤ 0.2
LPSR | ≤ 0.2
PYRN | ≤ 0.2
KRMA | ≤ 0.2
QPKH | ≤ 0.2
KTLV | ≤ 0.2
TGGY | ≤ 0.2
NMHD | ≤ 0.2
ASSF | ≤ 0.2
QNNR | ≤ 0.2
RFTA | 0.541
QMAK | ≤ 0.2
TPFL | ≤ 0.2
EPMD | ≤ 0.2
TFAT | ≤ 0.2
GNME | ≤ 0.2
AEQG | ≤ 0.2
